Source: the supplement of paper PMC6135742
Where a name gives a salt, the structure may show the parent alone. ± gives the standard deviation of the averaged measurements. Whole data set: some 2,600 compounds, median “MBP+ mature oligodendrocyte number relative to DMSO vehicle control” near -0.34, cut for the highest 2% near 13. This is one part of the list.

Tested on: jimpy (Plp1 jimpy) mouse iPSC-derived oligodendrocyte progenitor cells
Assay: MBP+ mature oligodendrocyte number relative to DMSO vehicle control (SDs above negative control mean); higher = more surviving jimpy oligodendrocytes (rescue)
Conditions: 10 µM; 3 days
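Note: 10 µM single dose with 3-day oligodendrocyte differentiation.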

Row | Structure (SMILES) | MBP+ mature oligodendrocyte number
1 | N[C@@]1(C(=O)O)CS(=O)(=O)[C@H]2[C@H](C(=O)O)[C@H]21 | 2.94
2 | C[C@H]1O[C@@H](Oc2c(-c3cc(O)c(O)c(O)c3)oc3cc(O)cc(O)c3c2=O)[C@@H](O)[C@@H](O)[C@@H]1O [Myricitrin] | 0.507
3 | C=C1/C(=C\C=C2/CCC[C@]3(C)[C@@H]([C@H](C)/C=C/[C@H](C)C(C)C)CC[C@@H]23)C[C@@H](O)C[C@@H]1O [Doxercalciferol] | 8.14
4 | Cc1ccc2c(=O)c3cccc(CC(=O)O)c3oc2c1C [DMXAA (Vadimezan)] | -0.107
5 | CC(C)(C)c1ccc(C(O)CCCN2CCC(C(O)(c3ccccc3)c3ccccc3)CC2)cc1 (stereo not given) [Terfenadine] | < -3.85
6 | COc1cc(NC(C)CCCN)c2ncccc2c1 (stereo not given) [Primaquine Diphosphate] | < -6.35
7 | CC(=O)CC/C=C(\C)CC/C=C(\C)CC/C=C(\C)CCC=C(C)C [Geranylgeranylacetone] | 3.99
8 | COCCOc1cc2ncnc(Cl)c2cc1OCCOC | -0.247
9 | CC[N+](CC)(CC)CC(=O)Nc1c(C)cccc1C [Lidocaine N-ethyl bromide quaternary salt] | -1.11
10 | Cc1ccc([N+](=O)[O-])cc1S(=O)(=O)N(C)/N=C/c1cnc2ccc(Br)cn12 | < -6.7
11 | CC/C(=C(/CC)c1ccc(O)cc1)c1ccc(O)cc1 [Diethylstilbestrol] | 5.2
12 | CC1=C(/C=C/C(C)=C/C=C/C(C)=C\C(=O)O)C(C)(C)CCC1 [13-cis-retinoic acid] | -0.283
13 | CC1=C(/C=C/C(C)=C/C=C/C(C)=C\C(=O)O)C(C)(C)CCC1 [Isotretinoin] | 0.196
14 | Nc1nc(OCc2ccccc2)c2nc[nH]c2n1 [O6-benzylguanine] | -1.14
15 | NC1C=CC=C(C(=O)O)C1 (stereo not given) [Gabaculine hydrochloride] | 0.235
16 | CC(C)(Sc1ccc(CCN(CCCCC2CCCCC2)C(=O)NC2CCCCC2)cc1)C(=O)O | -1.38
17 | CSc1ccc2c(c1)N(CCC1CCCCN1C)c1ccccc1S2 (stereo not given) [Thioridazine hydrochloride] | < -3.85
18 | NC(N)=Nc1nc(CSCC/C(N)=N/S(N)(=O)=O)cs1 [Famotidine] | -0.0723 ± 0.81
19 | COc1ccc(-c2ccc3c(N4CCOCC4)nc(N4C[C@@H](C)O[C@@H](C)C4)nc3n2)cc1CO | -6.17
20 | Nc1ccc(CCNc2ncnc3c2ncn3C2OC(CO)C(O)C2O)cc1 (stereo not given) [N6-2-(4-Aminophenyl)ethyladenosine] | -1.49
21 | C/C(=C\c1ccc(C(=O)O)cc1)c1ccc2c(c1)C(C)(C)CCC2(C)C [TTNPB (Arotinoid Acid)] | 2.43
22 | COc1cc(OC)c(/C=C/S(=O)(=O)Cc2ccc(OC)c(NCC(=O)O)c2)c(OC)c1 | -3.12
23 | CN(C)[C@@H]1C(O)=C(C(N)=O)C(=O)[C@@]2(O)C(O)=C3C(=O)c4c(O)cccc4[C@@](C)(O)[C@H]3[C@H](O)[C@@H]12 [Oxytetracycline (Terramycin)] | 2.59
24 | OC(CN1CCN(c2cccc(Cl)c2)CC1)C(c1ccccc1)c1ccccc1 (stereo not given) | -1.32
25 | CC(Cc1ccc(O)c(O)c1)(NN)C(=O)O (stereo not drawn) [S-(-)-Carbidopa] | -1.01

Row | Structure (SMILES) | MBP+ mature oligodendrocyte number
26 | CCCCCCCCCC(=O)NC(CN1CCOCC1)[C@H](O)c1ccccc1 (mixture of isomers) | -0.0684
27 | CN(C)c1ccc(O)c2c1C[C@H]1C[C@H]3[C@H](N(C)C)C(O)=C(C(N)=O)C(=O)[C@@]3(O)C(O)=C1C2=O [Minocycline hydrochloride] | -0.637
28 | CCN1CCc2nc(N)oc2CC1 [B-HT 933 dihydrochloride] | -0.0401
29 | COc1cc(C(C)=O)ccc1O [Apocynin] | 0.843
30 | C[N+](C)(C)CCOC(=O)CCC(=O)OCC[N+](C)(C)C [Succinylcholine chloride] | -0.925
31 | C[N+](C)(C)CCOC(=O)CCC(=O)OCC[N+](C)(C)C [Succinylcholine Chloride Dihydrate] | 0.491
32 | Nc1cc(F)ccc1NC(=O)/C=C/c1cnn(C/C=C/c2ccccc2)c1 | < -6.35
33 | CC(C)C[C@H](C(=O)O)c1cc(-c2ccc(C(F)(F)F)cc2)cc(-c2ccc(C(F)(F)F)cc2)c1 | 25.5
34 | CCOc1ccc2nc3cc(N)ccc3c(N)c2c1 [Ethacridine lactate monohydrate] | < -6.35
35 | CN(Cc1cnc2nc(N)nc(N)c2n1)c1ccc(C(=O)N[C@@H](CCC(=O)O)C(=O)O)cc1 [Methotrexate] | -2.16
36 | CN1CCN(c2c(F)cc3c(=O)c(C(=O)O)cn4c3c2OCN4C)CC1 [Marbofloxacin] | 0.458
37 | C[C@H]1[C@H](C)CC[C@]2(C(=O)O)CC[C@]3(C)C(=CC[C@@H]4[C@@]5(C)C[C@@H](O)[C@H](O)[C@@](C)(CO)[C@@H]5CC[C@]43C)[C@H]12 [Asiatic Acid] | -0.108
38 | CCOC(=O)c1ccc(N)cc1 [Benzocaine] | 1.08
39 | CCCCCCCCCCCCc1ccc(S(=O)(=O)Nc2nncs2)cc1 | 0.973
40 | COc1ccc(CCNc2nc(N3CCc4cc(OC)c(OC)cc4C3)c3cc(OC)c(OC)cc3n2)cc1OC | < -3.34
41 | CCN(CC)CCOC(=O)C(c1ccccc1)c1ccccc1 [Adiphenine HCl] | 0.0731
42 | C=CCn1c(=O)c2c(nc(-c3ccc(S(=O)(=O)O)cc3)n2C)n(C)c1=O [1-Allyl-3,7-dimethyl-8-p-sulfophenylxanthine] | 0.0385
43 | Cc1ccc(S(=O)(=O)NC(=O)NN2CCCCCC2)cc1 [Tolazamide] | -0.0327
44 | CCCN(CCc1ccccc1)C1CCc2c(O)cccc2C1 (racemic) [(±)-PPHT hydrochloride] | -2.28
45 | CCCCCCCCCCCC[N+](C)(C)CCOc1ccccc1 [Domiphen Bromide] | < -6.35
46 | COCCc1ccc(OCC(O)CNC(C)C)cc1 (racemic) [(±)-Metoprolol (+)-tartrate] | -1.81
47 | NC(=O)c1cccc(N)c1 [3-aminobenzamide] | 3.57
48 | Cc1ccc(-n2nc(C(C)(C)C)cc2NC(=O)Nc2ccc(OCCN3CCOCC3)c3ccccc23)cc1 [BIRB 796 (Doramapimod)] | 6.73
49 | Cc1cc(OCc2nnc(SC3CCCC3)n2-c2cccnc2)ccc1-c1ccc(S(C)(=O)=O)cc1 | < -6.35
50 | CNC(=O)c1ccc(C)c(-n2c(C)cc(OCc3ccc(F)cc3F)c(Br)c2=O)c1 | 1.45

Row | Structure (SMILES) | MBP+ mature oligodendrocyte number
51 | CNC(=N)NCCC[C@H](N)C(=O)O [NG-Monomethyl-L-arginine acetate] | -1.38
52 | c1ccc(CN(CC2=NCCN2)c2ccccc2)cc1 [Antazoline HCl] | 0.238
53 | Nc1ncnc2n[nH]c(Nc3ccc(F)cc3)c12 | -3.14
54 | CC[C@H](C)C[C@H](C)CCCCCCCCC(=O)N[C@H]1C[C@@H](O)[C@@H](NCCN)NC(=O)[C@@H]2[C@@H](O)CCN2C(=O)[C@H]([C@H](O)CCN)NC(=O)[C@H]([C@H](O)[C@@H](O)c2ccc(O)cc2)NC(=O)[C@@H]2C[C@@H](O)CN2C(=O)[C@H]([C@@H](C)O)NC1=O [Caspofungin Acetate] | -3.07
55 | CN(C)Cc1ccc(S(=O)(=O)n2ccc(/C=C/C(=O)NO)c2)cc1 [Resminostat] | < -6.01
56 | CNC(=O)CN(CCN(CCN(CC(=O)[O-])CC(=O)NC)CC(=O)[O-])CC(=O)[O-].[Gd+3] [Gadodiamide] | < -5.15
57 | CN(C)CC/C=C1/c2ccccc2COc2ccc(CC(=O)O)cc21 [Olopatadine HCl] | 0.955
58 | Clc1ccc(N2CCN(Cc3cc4ccccn4n3)CC2)cc1 | 0.61
59 | O=C(O)C1=CCCN(CCON=C(c2ccccc2)c2ccccc2)C1 [NO-711 hydrochloride] | -1.38
60 | O=C1CCCC(=O)C1C(=O)c1ccc(C(F)(F)F)cc1[N+](=O)[O-] [Nitisinone] | -0.167
61 | C[C@H](NC(=O)C(=O)Nc1ccccc1C(C)(C)C)C(=O)N[C@@H](CC(=O)O)C(=O)COc1c(F)c(F)cc(F)c1F [Emricasan] | 10.3
62 | Oc1cccc(-c2nc(N3CCOCC3)c3oc4ncccc4c3n2)c1 | -6.52
63 | C#CCn1c(=O)c2c(ncn2C)n(C)c1=O [3,7-Dimethyl-1-propargylxanthine] | -0.439
64 | N#C/C(=C\c1ccc(O)c(O)c1)C(=O)NCc1ccccc1 [AG-490 (Tyrphostin B42)] | -5.13
65 | C#C[C@]1(O)CC[C@H]2[C@@H]3CCC4=CC(=O)CC[C@@H]4[C@H]3CC[C@@]21CC [Levonorgestrel] | 3.04
66 | O=C(/C=C/c1ccc(O)c(O)c1)O[C@@H]1C[C@](O)(C(=O)O)C[C@@H](O)[C@H]1O [Chlorogenic Acid] | 1.79
67 | C[C@@H]1COC(Nc2ccc3ncnc(Nc4ccc(OCc5nccs5)c(Cl)c4)c3c2)=N1 [Varlitinib] | -5.61
68 | CN(C)CCC(c1ccc(Br)cc1)c1ccccn1 (single isomer, unassigned; (+)) [(+)-Brompheniramine maleate] | -2.2
69 | CC[C@@H](CO)NCCN[C@@H](CC)CO [Ethambutol HCl] | -1.09
70 | CCN(CC)CCCCNc1ncc2cc(-c3cc(OC)cc(OC)c3)c(NC(=O)NC(C)(C)C)nc2n1 | -6.61
71 | CC(C)C[C@H](NC(=O)CNC(=O)c1cc(Cl)ccc1Cl)B1OC(=O)C(CC(=O)O)(CC(=O)O)O1 | < -4.81
72 | CN1C2CCC1CC(OC(=O)C(O)c1ccccc1)C2 (stereo not given) [Homatropine Bromide] | 4.12
73 | CC(N)(Cc1ccc(O)c(O)c1)C(=O)O (racemic) [(±)-3-(3,4-dihydroxyphenyl)-2-methyl-DL-alanine] | -1.46
74 | CCCOc1ccc(C(=O)OCCN(CC)CC)cc1N [Proparacaine HCl] | 0.883
75 | Oc1cc2c(cc1O)C(c1ccccc1)CNCC2 (racemic) | 6.31
